Source: paper PMC4336329 (PLoS ONE, 2015)
Among all 310,000 compounds or so, about 2,200 (0.71%) showed an effect of 50% or more. The effect is printed as a negative number. The list shows a part of the results.

target: human ether-à-go-go-related gene (hERG) potassium channel (human, UniProt Q12809); experiment: primary screen, population patch clamp on CHO cells stably expressing hERG
Sequence (Q12809 whole entry, looked up): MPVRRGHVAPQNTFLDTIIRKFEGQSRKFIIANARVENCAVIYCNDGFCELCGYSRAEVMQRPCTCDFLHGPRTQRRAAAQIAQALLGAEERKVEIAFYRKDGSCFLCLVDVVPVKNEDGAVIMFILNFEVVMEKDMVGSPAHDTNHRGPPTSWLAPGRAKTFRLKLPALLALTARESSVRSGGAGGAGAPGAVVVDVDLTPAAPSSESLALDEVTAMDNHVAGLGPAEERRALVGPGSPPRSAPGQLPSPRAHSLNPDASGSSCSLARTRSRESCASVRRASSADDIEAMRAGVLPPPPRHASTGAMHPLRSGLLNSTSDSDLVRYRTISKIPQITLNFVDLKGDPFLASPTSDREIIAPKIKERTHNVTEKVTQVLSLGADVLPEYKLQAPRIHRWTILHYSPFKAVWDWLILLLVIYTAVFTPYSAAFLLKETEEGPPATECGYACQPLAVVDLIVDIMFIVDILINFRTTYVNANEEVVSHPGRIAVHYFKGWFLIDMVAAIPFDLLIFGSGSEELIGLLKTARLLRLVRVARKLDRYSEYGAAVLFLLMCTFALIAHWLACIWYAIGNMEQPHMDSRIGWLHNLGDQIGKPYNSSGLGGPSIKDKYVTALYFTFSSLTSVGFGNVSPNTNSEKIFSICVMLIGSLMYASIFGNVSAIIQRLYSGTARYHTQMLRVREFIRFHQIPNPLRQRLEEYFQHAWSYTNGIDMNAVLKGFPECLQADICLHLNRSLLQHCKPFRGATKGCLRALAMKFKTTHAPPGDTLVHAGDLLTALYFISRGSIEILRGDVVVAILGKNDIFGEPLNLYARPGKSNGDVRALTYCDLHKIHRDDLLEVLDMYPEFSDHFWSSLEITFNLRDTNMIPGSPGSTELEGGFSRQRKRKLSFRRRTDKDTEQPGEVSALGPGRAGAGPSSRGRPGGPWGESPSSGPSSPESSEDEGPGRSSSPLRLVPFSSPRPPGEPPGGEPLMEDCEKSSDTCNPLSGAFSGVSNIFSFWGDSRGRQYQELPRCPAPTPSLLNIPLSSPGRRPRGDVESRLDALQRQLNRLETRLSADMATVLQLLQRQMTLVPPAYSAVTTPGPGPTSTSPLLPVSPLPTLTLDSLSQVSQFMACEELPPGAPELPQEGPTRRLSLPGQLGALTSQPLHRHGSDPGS

SMILES	hERG current change (%, negative = inhibition) at 1uM [%]
Cc1cccc(/C(N)=N/OC(=O)CCCN2C(=O)c3ccccc3C2=O)c1	3.24
N#Cc1c(-c2cccs2)cc(-c2ccccn2)nc1N	1.47
CN(C)c1ncc(CN2CCC(CO)(CCCc3ccccc3)CC2)s1	0.511
CCOC(=O)NC(C(F)(F)F)(C(F)(F)F)P(=O)(c1ccccc1)c1ccccc1	8.14
COc1ccc(-c2sc3ccc(N4CCOCC4)cc3c2C#CC(C)(C)O)cc1	18
CC1(C)CC(=O)C(C=Nc2ccncc2)=C(O)C1	10.9
NC(=O)COC(=O)c1cccc2c1-c1ccccc1C2=O	0.836
COc1ccccc1NC(=O)CSc1ncn[nH]1	-3.32
O=C(COc1ccccc1O)Nc1ccccc1Cl	0.797
COC(=O)CCC(=O)N1CCOCCOCCN(C(=O)CCC(=O)OC)CCOCCOCC1	9.16
CCN(CC)Cc1c(O)ccc2c(=O)c(-c3ccccc3Cl)coc12	4.86
COc1ccccc1Nc1cc2cc(Br)ccc2c(=O)[nH]1	18.9
O=C(NCCCN1CCN(c2ccccc2)CC1)Nc1ccccc1C(F)(F)F	-9.64
COc1nc(NCCc2ccc(OC)c(OC)c2)nc(NC(C)(C)CO)n1	13.2
COc1ccc(S(N)(=O)=O)cc1C(=O)NCC(C)(C)N1CCCCC1	1.27
O=C(COc1ccc(Cl)cc1)Nc1cc(NC(=O)COc2ccc(Cl)cc2)cc(C(=O)O)c1	9.91
CNC(=O)c1cc(Oc2ccc(NC(=O)Nc3ccc(Cl)c(C(F)(F)F)c3)cc2)ccn1.Cc1ccc(S(=O)(=O)O)cc1	12.6
CCOc1ccccc1CN1C(=O)NC2(CCCCCC2)C1=O	13.7
O=C(NCC(c1cccs1)N1CCOCC1)c1ccc(Cl)cc1 (stereo not drawn)	3.86
COc1cc2[nH]c(=S)n(-c3ccccc3)c(=O)c2cc1OC	8.48
CC(=O)N1CCN(C(=O)c2cc(S(=O)(=O)Nc3ccc(S(C)(=O)=O)cc3)ccc2Cl)CC1	8.42
Cc1ccc(S(=O)(=O)n2cnc3cc([N+](=O)[O-])ccc32)c(C)c1C	8.07
Cl.N=c1sccn1Cc1ccccc1F	11.6

SMILES	hERG current change (%, negative = inhibition) at 1uM [%]
Cc1ccccc1C(=O)N1CCC(C(=O)Nc2ccccc2N2CCCC2)CC1	-0.981
CCN1CCN(S(=O)(=O)c2ccc3ccccc3c2)CC1	3.36
O=C(Nc1ccc(NC(=O)c2cccnc2Cl)cc1)c1cccc(Cl)c1	9.44
CC(C)NC(=S)NCc1cccnc1	15.8
CCN(CC)CCOC(=O)c1ccc(NC(=O)C2(c3ccccc3)CCCC2)cc1.Cl	-5.55
COc1ccc(Cl)cc1C(=O)Nc1ccc(OCC(=O)N2CCOCC2)cc1	17.5
Cc1cccc(Cc2nnc(CCC(=O)NCc3cn4ccccc4n3)o2)c1	8.62
Cc1cccc(CN2C(=O)N/C(=C/c3ccc(C)s3)C2=O)c1	-0.804
COc1ccc(/C=C2\SC(=S)N(N3C(=O)CCC3=O)C2=O)cc1O	8.99
O=C(c1sc2ccccc2c1Cl)N(Cc1ccccc1Cl)C1CCS(=O)(=O)C1 (stereo not drawn)	2.5
Cc1ccc(C(=O)NC2CCN(C(=O)Nc3ccccc3Cl)CC2)cc1	8.78
CCn1c(SCC(=O)c2cc(C)n(-c3ccc(C(=O)OC)cc3)c2C)nnc1-c1cccnc1	1.88
C=CCN1C(=NC(=O)COc2ccccc2)SC2CS(=O)(=O)CC21 (stereo not drawn)	17.5
Cc1cccc2sc(NC(=O)CSCc3ccccc3)nc12	14
O=C(OCc1ccccn1)c1ccc(COc2ccc3ccccc3c2)o1	7.15
Cn1c(NC(=O)c2ccccc2)c(-c2ccccn2)c(=O)c2ccccc21	10.5
O=S1(=O)N=C(N/N=C/c2cccs2)c2ccccc21	14.4
NC(=O)CN1C(=O)C2CCCCN2C(=O)c2ccccc21.O=C(O)C(=O)O (stereo not drawn)	12.2
COc1ccc(N(CC(=O)N/N=C/c2cc(Br)c(C)o2)S(=O)(=O)c2ccc(NC(C)=O)cc2)cc1	15.4
C[C@@H]1CCC[C@]2(O[C@H](CCO)C[C@@H](O)[C@@H]2O)O1	3.28
CCCCc1nc(SCc2ccc([N+](=O)[O-])cc2)n[nH]1	0.73
COCC1CCN(C(=O)c2cc(COc3ccc(-n4cncn4)cc3)on2)C1 (stereo not drawn)	10.8
